This experiment relates to Salmonella enterica serovar 1,4,[5],12:i:- (monophasic Typhimurium) (256 isolates). The experiment in a line: Isolates counted by MIC; Broth microdilution on BD Phoenix M50 Gram-negative panels.

Each value is the number of isolates with that result; steps that no isolate showed are left empty. MIC of human isolates of monophasic S. Typhimurium, automated broth microdilution (BD Phoenix M50 panel; '<=' and '>' mark the panel's ends); higher = less susceptible. No active / inactive call per row; the paper applies CLSI M100 breakpoints.

Take `CC1(C)S[C@@H]2[C@H](NC(=O)[C@H](N)c3ccccc3)C(=O)N2[C@H]1C(=O)O` [ampicillin]: the isolate count is, setting by setting: (MIC: >32 µg/mL) 215; (MIC: ≤2 µg/mL) 41.
`CC(C)(O/N=C(\C(=O)N[C@@H]1C(=O)N2C(C(=O)[O-])=C(C[n+]3ccccc3)CS[C@H]12)c1csc(N)n1)C(=O)O` [ceftazidime]: the isolate count runs as follows: (MIC: 0.5 µg/mL) 44; (MIC: 1 µg/mL) 1; (MIC: 2 µg/mL) 24; (MIC: 4 µg/mL) 17; (MIC: 8 µg/mL) 2; (MIC: 16 µg/mL) 14. Moreover, the isolate count is, setting by setting: (MIC: >16 µg/mL) 49; (MIC: ≤0.25 µg/mL) 105.
Turning to `C[C@@H](O)[C@H]1C(=O)N2C(C(=O)O)=C(SCCNC=N)C[C@H]12` [imipenem], the isolate count runs as follows: (MIC: 0.5 µg/mL) 70; (MIC: 1 µg/mL) 2; (MIC: 2 µg/mL) 1; (MIC: 4 µg/mL) 1; (MIC: >8 µg/mL) 3; (MIC: ≤0.25 µg/mL) 179.
In the case of `O=C(O)c1cn(C2CC2)c2cc(N3CCNCC3)c(F)cc2c1=O` [ciprofloxacin], the isolate count by setting is: (MIC: 0.03125 µg/mL) 84; (MIC: 0.0625 µg/mL) 9; (MIC: 0.125 µg/mL) 4; (MIC: 0.25 µg/mL) 35; (MIC: 0.5 µg/mL) 83; (MIC: 1 µg/mL) 22. For the same compound, the isolate count is, setting by setting: (MIC: 2 µg/mL) 11; (MIC: >2 µg/mL) 2; (MIC: ≤0.01563 µg/mL) 6.
As for `CN(C)c1cc(NC(=O)CNC(C)(C)C)c(O)c2c1C[C@H]1C[C@H]3[C@H](N(C)C)C(O)=C(C(N)=O)C(=O)[C@@]3(O)C(O)=C1C2=O` [tigecycline], the isolate count runs as follows: (MIC: 0.5 µg/mL) 109; (MIC: 1 µg/mL) 21; (MIC: 2 µg/mL) 3; (MIC: 8 µg/mL) 1; (MIC: ≤0.25 µg/mL) 122.
In the case of `O=C1CN(/N=C/c2ccc([N+](=O)[O-])o2)C(=O)N1` [nitrofurantoin], the isolate count (MIC: 64 µg/mL) is 7, the isolate count (MIC: 128 µg/mL) was 10 and the isolate count (MIC: ≤32 µg/mL) came to 239.
`C[C@@H](O)[C@H]1C(=O)N2C(C(=O)O)=C(S[C@@H]3CN[C@H](C(=O)Nc4cccc(C(=O)O)c4)C3)[C@H](C)[C@H]12` [ertapenem]: the isolate count came to 1 (MIC: 0.5 µg/mL), 6 (MIC: 1 µg/mL), 3 (MIC: >8 µg/mL) and 246 (MIC: ≤0.25 µg/mL).
Turning to `CCC(C)CCCC(=O)N[C@@H](CCN)C(=O)N[C@H](C(=O)N[C@@H](CCN)C(=O)N[C@H]1CCNC(=O)[C@H]([C@@H](C)O)NC(=O)[C@H](CCN)NC(=O)[C@H](CCN)NC(=O)[C@H](CC(C)C)NC(=O)[C@@H](CC(C)C)NC(=O)[C@H](CCN)NC1=O)[C@@H](C)O` (some centres not stated) [colistin], the isolate count is 243 (MIC: 0.5 µg/mL), 8 (MIC: 4 µg/mL) and 5 (MIC: 8 µg/mL).
With `O=C(N[C@H](CO)[C@H](O)c1ccc([N+](=O)[O-])cc1)C(Cl)Cl` [chloramphenicol], the isolate count worked out at 10 (MIC: 8 µg/mL), 3 (MIC: 16 µg/mL), 129 (MIC: >32 µg/mL) and 114 (MIC: ≤4 µg/mL).
As for `CO/N=C(\C(=O)N[C@@H]1C(=O)N2C(C(=O)O)=C(COC(C)=O)CS[C@H]12)c1csc(N)n1` [cefotaxime], the isolate count came out at 10 (MIC: 0.5 µg/mL); 2 (MIC: 1 µg/mL); 2 (MIC: 2 µg/mL); 1 (MIC: 4 µg/mL); 7 (MIC: 16 µg/mL); 96 (MIC: >16 µg/mL). Where the note is “MIC: ≤0.25 µg/mL”, this compound came in with an isolate count of 138.
Regarding `C[C@@H](O)[C@H]1C(=O)N2C(C(=O)O)=C(S[C@@H]3CN[C@H](C(=O)N(C)C)C3)[C@H](C)[C@H]12` [meropenem], the isolate count runs as follows: (MIC: 0.25 µg/mL) 1; (MIC: 8 µg/mL) 2; (MIC: >8 µg/mL) 1; (MIC: ≤0.125 µg/mL) 252.
In the case of `NCC[C@H](O)C(=O)N[C@@H]1C[C@H](N)[C@@H](O[C@H]2O[C@H](CN)[C@@H](O)[C@H](O)[C@H]2O)[C@H](O)[C@H]1O[C@H]1O[C@H](CO)[C@@H](O)[C@H](N)[C@H]1O` [amikacin], the isolate count reads like this: (MIC: 8 µg/mL) 16; (MIC: 16 µg/mL) 1; (MIC: >64 µg/mL) 3; (MIC: ≤4 µg/mL) 236.
With `C[C@H]1[C@H](NC(=O)/C(=N\OC(C)(C)C(=O)O)c2csc(N)n2)C(=O)N1S(=O)(=O)O` [aztreonam], the isolate count by setting is: (MIC: 0.5 µg/mL) 2; (MIC: 1 µg/mL) 2; (MIC: 4 µg/mL) 5; (MIC: 8 µg/mL) 18; (MIC: 16 µg/mL) 7; (MIC: >16 µg/mL) 70. Under “MIC: ≤0.25 µg/mL”, this compound came in with an isolate count of 152.
Turning to `CN(C)[C@@H]1C(O)=C(C(N)=O)C(=O)[C@@]2(O)C(O)=C3C(=O)c4c(O)cccc4[C@@](C)(O)[C@H]3C[C@@H]12` [tetracycline], the isolate count runs as follows: (MIC: 2 µg/mL) 16; (MIC: 4 µg/mL) 2; (MIC: >16 µg/mL) 219; (MIC: ≤1 µg/mL) 19.
With `CO[C@@]1(NC(=O)Cc2cccs2)C(=O)N2C(C(=O)O)=C(COC(N)=O)CS[C@@H]21` [cefoxitin], the isolate count was found to be 19 (MIC: 4 µg/mL); 4 (MIC: 8 µg/mL); 6 (MIC: 16 µg/mL); 4 (MIC: 32 µg/mL); 3 (MIC: 64 µg/mL); 9 (MIC: >64 µg/mL). This compound registered an isolate count (MIC: ≤2 µg/mL) of 211.

The values above are taken from the supplement of paper PMC12340968.
